This note sets out measurements from the supplement of paper PMC12230231.

± gives the standard deviation of the averaged measurements. Restriction of a single-cycle SIVsab GFP reporter by TRIM5α v1-loop variants in CRFK cells. Human variants: read share among cells still uninfected after two challenges over input, higher = gained restriction. Rhesus variants: share among infected cells over input, higher = lost restriction. Reporter dose not given per row. No active / inactive call per row; the paper calls a change when both replicates lie above its controls (mean + 2 SD of stop or wild-type variants, or the top frameshift score). Residues outside the varied loop are taken from Swiss-Prot. The paper reads the human single-substitution scores as noise; they and the rhesus combinations repeat poorly (rank correlation 0.3 to 0.4), indel scores repeat only for the top variants, rhesus substitutions well (0.9).

This series deals with SIVsab (simian immunodeficiency virus of sabaeus monkeys), single-cycle GFP reporter, in CRFK cells. The experiment in a line: enrichment among infected cells over input (fold); higher = weaker restriction. Conditions: library: human / rhesus combinations. Here is the method:
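Pools of CRFK cells expressing variants of the TRIM5α v1 loop were challenged with the single-cycle reporter, sorted by GFP and sequenced; mean of two replicates.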
On to “MASGILLNVKEEVTCPICLELLTEPLSLHCGHSFCQACITANHKKSMLYKEGERSCPVCRISYQPENIQPNRHVANIVEKLREVKLSPEEGQKVDHCARHGEKLLLFCQEDSKVICWLCERSQEHRGHHTFLMEEVAQEYHVKLQTALEMLRQKQQEAEKLEADIREEKASWKIQIDYDKTNVSADFEQLREILDWEESNELQNLEKEEEDILKSLTKSETEMVQQTQYMRELISELEHRLQGSMMDLLQGVDGIIKRIENMTLKKPKTFHKNQRRVFRAPDLKGMLDMFRELTDARRYWVDVTLAPNNISHAVIAEDKRQVSSRNPQIMYGAPGTRFTFPTFTNFNYCTGVLGSQSITSGKHYWEVDVSKKSAWILGVCAGFQSDAMYNIEQNENYQPKYGYWVIGLQEGVKYSVFQDGSSHTPFAPFIVPLSVIICPDRVGVFVDYEACTVSFFNITNHGFLIYKFSQCSFSKPVFPYLNPRKCTVPMTLCSPSS [rhesus TRIM5α, 332-344 = GAPGTRFTFPTFT]”, for which the enrichment came to 1.11 ± 0.33. As for “MASGILLNVKEEVTCPICLELLTEPLSLHCGHSFCQACITANHKKSMLYKEGERSCPVCRISYQPENIQPNRHVANIVEKLREVKLSPEEGQKVDHCARHGEKLLLFCQEDSKVICWLCERSQEHRGHHTFLMEEVAQEYHVKLQTALEMLRQKQQEAEKLEADIREEKASWKIQIDYDKTNVSADFEQLREILDWEESNELQNLEKEEEDILKSLTKSETEMVQQTQYMRELISELEHRLQGSMMDLLQGVDGIIKRIENMTLKKPKTFHKNQRRVFRAPDLKGMLDMFRELTDARRYWVDVTLAPNNISHAVIAEDKRQVSSRNPQIMYGAPGTRFTFPTFVNFNYCTGVLGSQSITSGKHYWEVDVSKKSAWILGVCAGFQSDAMYNIEQNENYQPKYGYWVIGLQEGVKYSVFQDGSSHTPFAPFIVPLSVIICPDRVGVFVDYEACTVSFFNITNHGFLIYKFSQCSFSKPVFPYLNPRKCTVPMTLCSPSS [rhesus TRIM5α, 332-344 = GAPGTRFTFPTFV]”, the figure is 1.14 ± 0.39; as for “MASGILLNVKEEVTCPICLELLTEPLSLHCGHSFCQACITANHKKSMLYKEGERSCPVCRISYQPENIQPNRHVANIVEKLREVKLSPEEGQKVDHCARHGEKLLLFCQEDSKVICWLCERSQEHRGHHTFLMEEVAQEYHVKLQTALEMLRQKQQEAEKLEADIREEKASWKIQIDYDKTNVSADFEQLREILDWEESNELQNLEKEEEDILKSLTKSETEMVQQTQYMRELISELEHRLQGSMMDLLQGVDGIIKRIENMTLKKPKTFHKNQRRVFRAPDLKGMLDMFRELTDARRYWVDVTLAPNNISHAVIAEDKRQVSSRNPQIMYGAPGTRFTFPTLTNFNYCTGVLGSQSITSGKHYWEVDVSKKSAWILGVCAGFQSDAMYNIEQNENYQPKYGYWVIGLQEGVKYSVFQDGSSHTPFAPFIVPLSVIICPDRVGVFVDYEACTVSFFNITNHGFLIYKFSQCSFSKPVFPYLNPRKCTVPMTLCSPSS [rhesus TRIM5α, 332-344 = GAPGTRFTFPTLT]”, 2.2 ± 0.39; as for “MASGILLNVKEEVTCPICLELLTEPLSLHCGHSFCQACITANHKKSMLYKEGERSCPVCRISYQPENIQPNRHVANIVEKLREVKLSPEEGQKVDHCARHGEKLLLFCQEDSKVICWLCERSQEHRGHHTFLMEEVAQEYHVKLQTALEMLRQKQQEAEKLEADIREEKASWKIQIDYDKTNVSADFEQLREILDWEESNELQNLEKEEEDILKSLTKSETEMVQQTQYMRELISELEHRLQGSMMDLLQGVDGIIKRIENMTLKKPKTFHKNQRRVFRAPDLKGMLDMFRELTDARRYWVDVTLAPNNISHAVIAEDKRQVSSRNPQIMYGAPGTRFTFPTLVNFNYCTGVLGSQSITSGKHYWEVDVSKKSAWILGVCAGFQSDAMYNIEQNENYQPKYGYWVIGLQEGVKYSVFQDGSSHTPFAPFIVPLSVIICPDRVGVFVDYEACTVSFFNITNHGFLIYKFSQCSFSKPVFPYLNPRKCTVPMTLCSPSS [rhesus TRIM5α, 332-344 = GAPGTRFTFPTLV]”, 0.905 ± 0.18. As for “MASGILLNVKEEVTCPICLELLTEPLSLHCGHSFCQACITANHKKSMLYKEGERSCPVCRISYQPENIQPNRHVANIVEKLREVKLSPEEGQKVDHCARHGEKLLLFCQEDSKVICWLCERSQEHRGHHTFLMEEVAQEYHVKLQTALEMLRQKQQEAEKLEADIREEKASWKIQIDYDKTNVSADFEQLREILDWEESNELQNLEKEEEDILKSLTKSETEMVQQTQYMRELISELEHRLQGSMMDLLQGVDGIIKRIENMTLKKPKTFHKNQRRVFRAPDLKGMLDMFRELTDARRYWVDVTLAPNNISHAVIAEDKRQVSSRNPQIMYGAPGTRFTFQSFTNFNYCTGVLGSQSITSGKHYWEVDVSKKSAWILGVCAGFQSDAMYNIEQNENYQPKYGYWVIGLQEGVKYSVFQDGSSHTPFAPFIVPLSVIICPDRVGVFVDYEACTVSFFNITNHGFLIYKFSQCSFSKPVFPYLNPRKCTVPMTLCSPSS [rhesus TRIM5α, 332-344 = GAPGTRFTFQSFT]”, the figure is 0.747 ± 0.04; as for “MASGILLNVKEEVTCPICLELLTEPLSLHCGHSFCQACITANHKKSMLYKEGERSCPVCRISYQPENIQPNRHVANIVEKLREVKLSPEEGQKVDHCARHGEKLLLFCQEDSKVICWLCERSQEHRGHHTFLMEEVAQEYHVKLQTALEMLRQKQQEAEKLEADIREEKASWKIQIDYDKTNVSADFEQLREILDWEESNELQNLEKEEEDILKSLTKSETEMVQQTQYMRELISELEHRLQGSMMDLLQGVDGIIKRIENMTLKKPKTFHKNQRRVFRAPDLKGMLDMFRELTDARRYWVDVTLAPNNISHAVIAEDKRQVSSRNPQIMYGAPGTRFTFQSFVNFNYCTGVLGSQSITSGKHYWEVDVSKKSAWILGVCAGFQSDAMYNIEQNENYQPKYGYWVIGLQEGVKYSVFQDGSSHTPFAPFIVPLSVIICPDRVGVFVDYEACTVSFFNITNHGFLIYKFSQCSFSKPVFPYLNPRKCTVPMTLCSPSS [rhesus TRIM5α, 332-344 = GAPGTRFTFQSFV]”, 0.833 ± 0.14; as for “MASGILLNVKEEVTCPICLELLTEPLSLHCGHSFCQACITANHKKSMLYKEGERSCPVCRISYQPENIQPNRHVANIVEKLREVKLSPEEGQKVDHCARHGEKLLLFCQEDSKVICWLCERSQEHRGHHTFLMEEVAQEYHVKLQTALEMLRQKQQEAEKLEADIREEKASWKIQIDYDKTNVSADFEQLREILDWEESNELQNLEKEEEDILKSLTKSETEMVQQTQYMRELISELEHRLQGSMMDLLQGVDGIIKRIENMTLKKPKTFHKNQRRVFRAPDLKGMLDMFRELTDARRYWVDVTLAPNNISHAVIAEDKRQVSSRNPQIMYGAPGTRFTFQSLTNFNYCTGVLGSQSITSGKHYWEVDVSKKSAWILGVCAGFQSDAMYNIEQNENYQPKYGYWVIGLQEGVKYSVFQDGSSHTPFAPFIVPLSVIICPDRVGVFVDYEACTVSFFNITNHGFLIYKFSQCSFSKPVFPYLNPRKCTVPMTLCSPSS [rhesus TRIM5α, 332-344 = GAPGTRFTFQSLT]”, 1.26 ± 0.26. As for “MASGILLNVKEEVTCPICLELLTEPLSLHCGHSFCQACITANHKKSMLYKEGERSCPVCRISYQPENIQPNRHVANIVEKLREVKLSPEEGQKVDHCARHGEKLLLFCQEDSKVICWLCERSQEHRGHHTFLMEEVAQEYHVKLQTALEMLRQKQQEAEKLEADIREEKASWKIQIDYDKTNVSADFEQLREILDWEESNELQNLEKEEEDILKSLTKSETEMVQQTQYMRELISELEHRLQGSMMDLLQGVDGIIKRIENMTLKKPKTFHKNQRRVFRAPDLKGMLDMFRELTDARRYWVDVTLAPNNISHAVIAEDKRQVSSRNPQIMYGAPGTRFTFQSLVNFNYCTGVLGSQSITSGKHYWEVDVSKKSAWILGVCAGFQSDAMYNIEQNENYQPKYGYWVIGLQEGVKYSVFQDGSSHTPFAPFIVPLSVIICPDRVGVFVDYEACTVSFFNITNHGFLIYKFSQCSFSKPVFPYLNPRKCTVPMTLCSPSS [rhesus TRIM5α, 332-344 = GAPGTRFTFQSLV]”, the figure is 1.03 ± 0.23. As to “MASGILLNVKEEVTCPICLELLTEPLSLHCGHSFCQACITANHKKSMLYKEGERSCPVCRISYQPENIQPNRHVANIVEKLREVKLSPEEGQKVDHCARHGEKLLLFCQEDSKVICWLCERSQEHRGHHTFLMEEVAQEYHVKLQTALEMLRQKQQEAEKLEADIREEKASWKIQIDYDKTNVSADFEQLREILDWEESNELQNLEKEEEDILKSLTKSETEMVQQTQYMRELISELEHRLQGSMMDLLQGVDGIIKRIENMTLKKPKTFHKNQRRVFRAPDLKGMLDMFRELTDARRYWVDVTLAPNNISHAVIAEDKRQVSSRNPQIMYGAPGTRFTFQTFTNFNYCTGVLGSQSITSGKHYWEVDVSKKSAWILGVCAGFQSDAMYNIEQNENYQPKYGYWVIGLQEGVKYSVFQDGSSHTPFAPFIVPLSVIICPDRVGVFVDYEACTVSFFNITNHGFLIYKFSQCSFSKPVFPYLNPRKCTVPMTLCSPSS [rhesus TRIM5α, 332-344 = GAPGTRFTFQTFT]”, the enrichment stood at 1.18 ± 0.063. As for “MASGILLNVKEEVTCPICLELLTEPLSLHCGHSFCQACITANHKKSMLYKEGERSCPVCRISYQPENIQPNRHVANIVEKLREVKLSPEEGQKVDHCARHGEKLLLFCQEDSKVICWLCERSQEHRGHHTFLMEEVAQEYHVKLQTALEMLRQKQQEAEKLEADIREEKASWKIQIDYDKTNVSADFEQLREILDWEESNELQNLEKEEEDILKSLTKSETEMVQQTQYMRELISELEHRLQGSMMDLLQGVDGIIKRIENMTLKKPKTFHKNQRRVFRAPDLKGMLDMFRELTDARRYWVDVTLAPNNISHAVIAEDKRQVSSRNPQIMYGAPGTRFTFQTFVNFNYCTGVLGSQSITSGKHYWEVDVSKKSAWILGVCAGFQSDAMYNIEQNENYQPKYGYWVIGLQEGVKYSVFQDGSSHTPFAPFIVPLSVIICPDRVGVFVDYEACTVSFFNITNHGFLIYKFSQCSFSKPVFPYLNPRKCTVPMTLCSPSS [rhesus TRIM5α, 332-344 = GAPGTRFTFQTFV]”, the figure is 0.912 ± 0.2. Consider “MASGILLNVKEEVTCPICLELLTEPLSLHCGHSFCQACITANHKKSMLYKEGERSCPVCRISYQPENIQPNRHVANIVEKLREVKLSPEEGQKVDHCARHGEKLLLFCQEDSKVICWLCERSQEHRGHHTFLMEEVAQEYHVKLQTALEMLRQKQQEAEKLEADIREEKASWKIQIDYDKTNVSADFEQLREILDWEESNELQNLEKEEEDILKSLTKSETEMVQQTQYMRELISELEHRLQGSMMDLLQGVDGIIKRIENMTLKKPKTFHKNQRRVFRAPDLKGMLDMFRELTDARRYWVDVTLAPNNISHAVIAEDKRQVSSRNPQIMYGAPGTRFTFQTLTNFNYCTGVLGSQSITSGKHYWEVDVSKKSAWILGVCAGFQSDAMYNIEQNENYQPKYGYWVIGLQEGVKYSVFQDGSSHTPFAPFIVPLSVIICPDRVGVFVDYEACTVSFFNITNHGFLIYKFSQCSFSKPVFPYLNPRKCTVPMTLCSPSS [rhesus TRIM5α, 332-344 = GAPGTRFTFQTLT]”, for which the enrichment is 1.17 ± 0.29.
